{"source": "PubChem BioAssay AID2675", "about": "(National Center for Advancing Translational Sciences (NCATS), 2010)", "note": "“And” between values parts separate entries of the source, which are not always exact repeats. Equal entries are not always repeated. In all, about 280,000 compounds went through this assay and about 100 (0.036%) were called active. Inconclusive means that the source gave no clear call. Such entries were picked first, then a sample of the others. Calls come from the whole dose curve; as a rule, active = well fitted inhibition curve with a large enough effect in the signal ratio, with a control signal flat (not every such curve was filed as active); inconclusive = small, poorly fitted or top-dose-only effect, or effect the other way, or a change in a side signal; inactive = no such curve, though single readings can be large or run the other way; the % refers to the signal ratio. Where the call is inconclusive, the potency comes from a doubtful curve fit. A note “side channel” means that the fit belongs to a control or component signal, not to the main read-out. Potency is the fitted concentration of half-maximal effect; tags give direction and shape of the fitted curve or compound fluorescence and quenching."}
{"biological_target": "Muscleblind-like protein 1 (Homo sapiens) (UniProt Q9NR56)", "sequence (Q9NR56 whole entry, looked up)": "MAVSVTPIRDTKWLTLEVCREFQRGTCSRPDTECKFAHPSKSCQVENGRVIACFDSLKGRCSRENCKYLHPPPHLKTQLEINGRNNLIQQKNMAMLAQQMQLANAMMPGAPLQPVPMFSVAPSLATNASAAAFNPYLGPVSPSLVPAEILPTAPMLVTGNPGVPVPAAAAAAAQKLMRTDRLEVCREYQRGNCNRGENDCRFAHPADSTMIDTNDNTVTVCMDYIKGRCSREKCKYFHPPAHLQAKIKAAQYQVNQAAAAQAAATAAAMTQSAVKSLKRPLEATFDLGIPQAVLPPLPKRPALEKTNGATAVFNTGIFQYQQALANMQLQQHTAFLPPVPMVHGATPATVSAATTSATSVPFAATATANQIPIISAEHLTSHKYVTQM", "assay": "qHTS Assay for Inhibitors of MBNL1-poly(CUG) RNA binding", "settings": "TR-FRET MBNL1-His/biotin-(CUG)12 binding, 665/545 ratio; series mostly up to 57.5 µM", "method_in_brief": "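Compounds (final 92 nM to 58 uM) are added to His-tagged MBNL1 and biotin-(CUG)12, then terbium anti-His antibody and streptavidin-XL665 (5 nM final). After 60 min at room temperature, the 665/545 nm ratio is read.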"}
{"smiles": "COc1ccc(NC(=O)C2=CC(c3ccc(C)cc3)=NS(=O)(=O)N2C)cc1", "Potency": "inconclusive: 25.1 µM [quencher, side channel, single point]"}
{"smiles": "O=C(NC1CCCCC1)C(c1ccccc1)N(Cc1ccco1)C(=O)Cn1cnc2ccccc21", "note": "(stereo not drawn)", "Potency": "inconclusive: 0.708 µM [quencher, side channel, single point]"}
{"smiles": "O=C(NCc1ccc(F)cc1)C1CCN(S(=O)(=O)c2cccc3nonc23)CC1", "Potency": "inconclusive: 2.82 µM [quencher, side channel, full curve, poor fit]"}
{"smiles": "CCOc1ccccc1N1CCN(C(=O)c2cn(CC3CCCCC3)nn2)CC1", "Potency": "inconclusive: 25.1 µM [quencher, side channel, single point]"}
{"smiles": "CC(=O)Nc1ccc(Nc2cc(N(C)C)c3nonc3c2[N+](=O)[O-])cc1", "Potency": "inconclusive: 1.41 µM [quencher, side channel, full curve]"}
{"smiles": "S=C(Nc1ccccc1Cl)N1CCCCCC1", "Potency": "inactive"}
{"smiles": "CCOC(=O)c1ccc(NC(=O)CCS(=O)(=O)c2cccc3nonc23)cc1", "Potency": "inconclusive: 7.08 µM [quencher, side channel, partial curve]"}
{"smiles": "O=C(/C=C/c1ccc([N+](=O)[O-])cc1)NCc1ccco1", "Potency": "inconclusive: 11.2 µM [quencher, side channel, partial curve]"}
{"smiles": "CN1CCN(C(=O)CSc2nc(-c3cccs3)ccc2C#N)CC1", "Potency": "inconclusive: 15.8 µM [quencher, side channel, partial curve]"}
{"smiles": "COc1ccc(NS(=O)(=O)c2ccc(NC(=S)NC(=O)c3ccc(Br)cc3)cc2)nn1", "Potency": "inactive"}
{"smiles": "COc1ccc(C2/C(=C(/O)c3ccccc3)C(=O)C(=O)N2C)cc1OC", "note": "(stereo not drawn)", "Potency": "inconclusive: 25.1 µM [quencher, side channel, single point]"}
{"smiles": "CCN1CCOC(CC(=O)Nc2ccc([N+](=O)[O-])cc2)C1=O", "note": "(stereo not drawn)", "Potency": "inconclusive: 28.2 µM [quencher, side channel, partial curve]"}
{"smiles": "OC1=C(O)c2nc3cc(C(F)(F)F)ccc3nc21", "Potency": "inconclusive: 14.1 µM [quencher, side channel, partial curve]"}
{"smiles": "O=C(NCc1ccco1)Nc1ccc([N+](=O)[O-])cc1", "Potency": "inconclusive: 17.8 µM [quencher, side channel, partial curve] and inconclusive: 28.2 µM [quencher, side channel, partial curve, poor fit]"}
{"smiles": "N#Cc1c(-c2ccncc2)c2c([nH]c1=S)CCCC2", "Potency": "inconclusive: 44.7 µM [quencher, side channel, single point]"}
{"smiles": "O=C(NNC(=S)Nc1ccccc1)c1cccc(Br)c1", "Potency": "inactive"}
{"smiles": "O=C(NCc1ccc2c(c1)OCO2)C1CCN(S(=O)(=O)c2cccc3nsnc23)CC1", "Potency": "inconclusive: 2.24 µM [quencher, side channel, full curve, poor fit]"}
{"smiles": "COc1ccc(-c2ccc(/C=C(\\NC(=O)c3ccccc3)C(=O)N3CCOCC3)o2)cc1", "Potency": "inconclusive: 28.2 µM [quencher, side channel, partial curve]"}
{"smiles": "COc1ccc(NC(=O)CCN2C(=O)c3cccc([N+](=O)[O-])c3C2=O)cc1", "Potency": "inconclusive: 11.2 µM [quencher, side channel, partial curve]"}
{"smiles": "C=CCN(CC=C)c1ccc(N2C(=O)C3CCCCC3C2=O)cc1[N+](=O)[O-]", "note": "(stereo not drawn)", "Potency": "inconclusive: 20 µM [quencher, side channel, single point]"}
{"smiles": "CC(=O)c1ccc(NC(=O)C2CCCN(S(=O)(=O)c3cccc4nonc34)C2)cc1", "note": "(stereo not drawn)", "Potency": "inconclusive: 11.2 µM [quencher, side channel, partial curve]"}
{"smiles": "COCCNc1c(-c2cc3ccc(C)c(C)c3[nH]c2=O)nc2ccccn12", "Potency": "inconclusive: 28.2 µM [quencher, side channel, single point]"}
{"smiles": "C=C(C)C(=O)Nc1cccc(C2=NOC3(C2)C[C@@H](C(N)=O)N(C(=O)c2ccc(Cl)cc2)C3)c1", "note": "(stereo partly drawn)", "Potency": "inactive"}
{"smiles": "CC1C(=O)C(C)C(c2ccc([N+](=O)[O-])cc2)NC1c1ccc([N+](=O)[O-])cc1", "note": "(stereo not drawn)", "Potency": "inconclusive: 12.6 µM [quencher, side channel, partial curve]"}
{"smiles": "O=C(NCCCN1CCCCC1)C1CCN(c2ncnc3c2nc2n3CCCCC2)CC1", "Potency": "inactive"}
{"smiles": "C/C(CC(=O)NCc1ccco1)=N\\NC(=O)Cc1ccc(-c2ccccc2)cc1", "Potency": "inconclusive: 0.0794 µM [fluorescent, side channel, full curve]"}
{"smiles": "CCN(CC)c1c(-c2ccccc2)c2cc(C)ccc2[nH]c1=O", "Potency": "inconclusive: 3.16 µM [fluorescent, side channel, partial curve]"}
{"smiles": "Cc1ccc(OCC(=O)Nc2ccc3c(c2)nc(CCN2CCC(C)CC2)n3C)cc1", "Potency": "inactive"}
{"smiles": "CCNc1nc(OC)nc(N2CCC(Cc3ccccc3)CC2)n1", "Potency": "inconclusive: 100 µM [inhibitor, single point]"}
{"smiles": "N#C/C(=C\\c1ccc(-c2ccccc2[N+](=O)[O-])o1)C(=O)N1CCOCC1", "Potency": "inconclusive: 25.1 µM [quencher, side channel, partial curve]"}
{"smiles": "COc1cnc(-c2ccccn2)nc1Oc1cccc(C(F)(F)F)c1", "Potency": "inactive"}
{"smiles": "O=C(OCC(=O)N1CCCCCC1)c1ccc(Cl)c(S(=O)(=O)N2CCCC2)c1", "Potency": "inactive"}
{"smiles": "CCN(CC)S(=O)(=O)c1ccc(N=Cc2c(C)c(C#N)c(=O)n(C)c2O)cc1", "Potency": "inconclusive: 12.6 µM [quencher, side channel, partial curve, poor fit]"}
{"smiles": "CN1CC=C2C(C#N)=C(N)C(C#N)(C#N)C(c3cccc(Cl)c3Cl)C2C1", "note": "(stereo not drawn)", "Potency": "inconclusive: 15.8 µM [quencher, side channel, partial curve]"}
{"smiles": "CCOC(=O)N1CCN(C(=O)c2ccc3c(c2)sc2nc(-c4ccc(OC)cc4)cn23)CC1", "Potency": "inconclusive: 0.141 µM [quencher, side channel, full curve, poor fit]"}
{"smiles": "O=C(/C=C/c1ccccc1[N+](=O)[O-])NCCc1ccc(F)cc1", "Potency": "inconclusive: 17.8 µM [quencher, partial curve]"}
{"smiles": "O=C1C2CCCN2C(=O)N1CCCCN1CCN(c2ccc(F)cc2)CC1", "note": "(stereo not drawn)", "Potency": "inactive"}
{"smiles": "CCOc1ccc([N+](=O)[O-])cc1CNC1CCCCCCC1", "Potency": "inconclusive: 31.6 µM [quencher, side channel, partial curve]"}
{"smiles": "CC(=O)C1=C(c2ccccc2)NC(=S)NC1c1cc(Cl)c(OC(C)C)c(Cl)c1", "note": "(stereo not drawn)", "Potency": "inconclusive: 0.0891 µM [fluorescent, side channel, full curve, poor fit]"}
{"smiles": "COc1cc(C(c2c(C)[nH][nH]c2=O)c2c(C)[nH][nH]c2=O)ccc1OC(=O)c1cccc([N+](=O)[O-])c1", "Potency": "inconclusive: 12.6 µM [quencher, side channel, partial curve]"}
{"smiles": "C[C@H](NC(=O)OC(C)(C)C)C(=O)N/N=C/c1ccc2nccnc2c1", "Potency": "inconclusive: 25.1 µM [quencher, side channel, partial curve]"}
{"smiles": "COc1ccc(CCNc2c([N+](=O)[O-])c(=O)oc3ccccc23)cc1OC", "Potency": "inconclusive: 8.91 µM [quencher, side channel, full curve]"}
{"smiles": "COc1ccccc1CC(=O)O/N=C(\\N)c1cccc([N+](=O)[O-])c1", "Potency": "inconclusive: 12.6 µM [quencher, side channel, partial curve]"}
{"smiles": "CC(=O)Nc1ccc(S(=O)(=O)N2CCN=C2SCc2ccc([N+](=O)[O-])cc2)cc1", "Potency": "inconclusive: 14.1 µM [quencher, side channel, partial curve]"}
{"smiles": "Cc1ccccc1-c1cc(-c2ccccc2O)n[nH]1", "Potency": "inactive"}
{"smiles": "Cc1c(CCOC(=O)c2ccc([N+](=O)[O-])cc2)sc[n+]1CC(=O)c1ccccc1", "Potency": "inconclusive: 10 µM [quencher, partial curve]"}
{"smiles": "COc1cc2c3c(c1)C(C)=CC(C)(C)N3C(=O)C2=O", "Potency": "inconclusive: 14.1 µM [quencher, side channel, partial curve]"}
{"smiles": "COc1cc(C(=O)Nc2ccc3nc(N4CCN(C)CC4)cc(C)c3c2)cc(OC)c1OC", "Potency": "active: 22.4 µM"}
{"smiles": "CC(C)NC(=S)NCc1cccnc1", "Potency": "inconclusive: 39.8 µM [fluorescent, side channel, partial curve]"}
{"smiles": "CC12CCC(C(=O)O)(c3nc4cc([N+](=O)[O-])ccc4nc31)C2(C)C", "note": "(stereo not drawn)", "Potency": "inconclusive: 7.08 µM [quencher, side channel, full curve]"}
{"smiles": "Cn1nnnc1SCc1ccc(F)cc1", "Potency": "inactive"}
{"smiles": "C=C1C(=O)C=C2CN(C(=O)c3ccccc3)[C@@](Cc3ccc(F)cc3)(C(=O)OC)[C@@H]12", "Potency": "inactive"}
{"smiles": "O=C1C=CC(=O)N1Nc1ccc(Br)cc1", "Potency": "inconclusive: 5.62 µM [quencher, side channel, single point]"}
{"smiles": "CC(=O)N(C)c1nnc(-c2cnccn2)s1", "Potency": "inconclusive: 31.6 µM [quencher, side channel, single point]"}
{"smiles": "O=C(CN1CCOCC1)Nc1ncc(Cc2ccccc2Cl)s1", "Potency": "inactive"}
{"smiles": "Cc1ccc(-c2ccccc2NC(=O)CS(=O)CC(=O)Nc2ccc(C)c(Cl)c2)o1", "note": "(stereo not drawn)", "Potency": "inconclusive: 8.91 µM [quencher, full curve]"}
{"smiles": "O=C(CCN1C(=O)/C(=C\\c2ccccc2)SC1=S)Nc1ccc(C(=O)O)cc1", "Potency": "inconclusive: 17.8 µM [quencher, side channel, partial curve]"}
{"smiles": "COC(=O)c1ccc(N2CN=C(c3ccc(C)cc3)NC2=S)cc1", "Potency": "inconclusive: 0.158 µM [quencher, side channel, partial curve, poor fit]"}
